Measured values: PubChem BioAssay (NCATS)
“And” between values parts separate entries of the source, which are not always exact repeats. Equal entries are not always repeated. Inconclusive results, whose numbers are uncertain, are shown with a selection of clear calls. For part of these data: Potencies of inconclusive entries are doubtful fits and often do not repeat. The source made the active and inactive calls. Calls follow the shape of the dose curve; as a rule, active = well fitted curve in the direction sought with a large enough effect; inconclusive = small, poorly fitted or top-dose-only effect, or another doubt; inactive = no such curve, though single readings can be large; an effect the other way counts as inactive or inconclusive.

Tests used:
[1] = Primary redox qHTS assay for identification of artifact compounds. (AID 1845223); also: potency is read from the fitted curve at half-maximal effect
Method in brief: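 Redox-cycling detection via DTT (250 uM final) oxidation coupled to Amplex Red (25 uM)/HRP (250 mU/mL) in HBSS. 15 min preincubation plus 30 min after DTT, room temperature. Ex/Em 525/598 nm; 4-parameter Hill fit against DMSO and 10 uM DA3003.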

[2] = biological target: Phospholipid hydroperoxide glutathione peroxidase GPX4 (Homo sapiens) (UniProt P36969); test: Primary qHTS Assay for Inhibitors of Recombinant Selenoprotein Glutathione Peroxidase 4 (GPX4) (AID 1845192); also: potency is read from the fitted curve at half-maximal effect; nearly all actives have a fitted effect of over 65% in size
Chain of UniProt P36969 (P36969 whole entry, looked up): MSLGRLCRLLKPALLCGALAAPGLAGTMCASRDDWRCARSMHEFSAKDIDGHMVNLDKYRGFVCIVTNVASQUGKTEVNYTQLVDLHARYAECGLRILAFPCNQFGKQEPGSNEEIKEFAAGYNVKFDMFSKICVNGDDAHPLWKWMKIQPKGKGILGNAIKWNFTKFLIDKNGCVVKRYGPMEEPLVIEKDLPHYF
Method in brief: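 Steps: GPX4 plus compound, 30 min RT; add GR/GSH/NADPH master mix; start with cumene hydroperoxide; read 340/450 nm fluorescence at 0 and 15 min. Finals were 200 nM GPX4, 1 mM GSH, 0.5 mM CHP, 0.5 mM NADPH, 100 nM GR.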

[3] = Quantitative High-Throughput drug screen in 47 multiple myeloma cell lines against the NCATS MIPE library collection: ARP1_JJKsccF8 cell viability assay (AID 1918928; also: nearly all actives have a fitted effect of over 40% in size; also: potency is read from the fitted curve at half-maximal effect); settings: ARP1 myeloma cells viability, CellTiter-Glo ATP, 48 h; viability: at 45.8 µM (top of the series)
Method in brief: (§1)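 Viability screen: myeloma cells (500/well) incubated 48 h at 37 °C, humidified 5% CO2, with pinned library compounds; CellTiter-Glo added, luminescence read; DMSO wells set 100%, medium-only wells 0%.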

[4] = Quantitative High-Throughput drug screen in 47 multiple myeloma cell lines against the NCATS MIPE library collection: ARD_JJKsccE7 cell viability assay (AID 1918929; also: potency is read from the fitted curve at half-maximal effect)
Method in brief: (§2)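 CellTiter-Glo ATP luminescence gave viability after 48 h compound treatment at 37C of 500 multiple myeloma cells per well. Normalisation used DMSO-only wells as 100% and media-only wells as 0% viability; primary qHTS of approved and investigational drugs.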

[5] = Quantitative High-Throughput drug screen in 47 multiple myeloma cell lines against the NCATS MIPE library collection: KMM1_JCRB cell viability assay (AID 1918960); settings: KMM1 myeloma viability, CellTiter-Glo ATP luminescence, 48 h; viability (% of DMSO): at 45.8 µM (top of the series); also: nearly all actives have a fitted effect of over 30% in size; also: potency is read from the fitted curve at half-maximal effect
Method in brief: as §1

[6] = Quantitative High-Throughput drug screen in 47 multiple myeloma cell lines against the NCATS MIPE library collection: Karpas417_ECACC cell viability assay (AID 1918961); settings: Karpas417 myeloma viability, CellTiter-Glo ATP luminescence, 48 h; viability (% of DMSO): at 45.8 µM (top of the series) unless noted; also: potency is read from the fitted curve at half-maximal effect
Method in brief: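 Viability readout: CellTiter-Glo luminescence following 5 min room-temperature incubation with reagent. Prior exposure: 48 h, 37C, humidified 5% CO2, 500 cells per well.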

[7] = Quantitative High-Throughput drug screen in 47 multiple myeloma cell lines against the NCATS MIPE library collection: KHM11_PLB cell viability assay (AID 1918962); settings: KHM11 myeloma cell viability, CellTiter-Glo ATP luminescence, 48 h; series mostly up to 45.8 µM; also: nearly all actives have a fitted effect of over 35% in size; also: potency is read from the fitted curve at half-maximal effect
Method in brief: (§3)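 We plated 500 myeloma cells per well, pinned in MIPE 4.0 compounds, and incubated for 48 hours at 37C. ATP was then quantified with CellTiter-Glo, with DMSO and media-only wells defining 100% and 0%.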

[8] = Primary fluorescence-based thiol-reactive (MSTI) qHTS assay for identification of artifact compounds. (AID 1845221); also: potency is read from the fitted curve at half-maximal effect;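 also: thiol-reactive compounds lower the probe fluorescence signal; nearly all actives have a fitted effect of over 65% in size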
Method in brief: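 First, 4 uM MSTI in 2% DMSO/PBS pH 7.4 was dispensed; next, compounds were added; then plates sat 1 h at room temperature without light. Finally, emission at 598 nm was recorded.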

[9] = Quantitative High-Throughput drug screen in 47 multiple myeloma cell lines against the NCATS MIPE library collection: FR4_PLB cell viability assay (AID 1918924; also: potency is read from the fitted curve at half-maximal effect; nearly all actives have a fitted effect of over 35% in size); settings: FR4_PLB myeloma cells viability, CellTiter-Glo ATP, 48 h; series mostly up to 45.8 µM
Method in brief: as §3

[10] = Quantitative High-Throughput drug screen in 47 multiple myeloma cell lines against the NCATS MIPE library collection: Delta47_JCRB cell viability assay (AID 1918925; also: potency is read from the fitted curve at half-maximal effect; nearly all actives have a fitted effect of over 45% in size); settings: Delta47 myeloma viability, CellTiter-Glo ATP, 48 h; viability (% of DMSO): at 45.8 µM (top of the series) unless noted
Method in brief: as §2

[11] = Quantitative High-Throughput drug screen in 47 multiple myeloma cell lines against the NCATS MIPE library collection: EJM_DSMZ cell viability assay (AID 1918926; also: nearly all actives have a fitted effect of over 30% in size; also: potency is read from the fitted curve at half-maximal effect); settings: EJM myeloma cell viability, CellTiter-Glo ATP, 48 h; series mostly up to 45.8 µM
Method in brief: as §2

[12] = Quantitative High-Throughput drug screen in 47 multiple myeloma cell lines against the NCATS MIPE library collection: AMO1_DSMZ cell viability assay (AID 1918927; also: potency is read from the fitted curve at half-maximal effect; nearly all actives have a fitted effect of over 30% in size)
Method in brief: as §2

[13] = Quantitative High-Throughput drug screen in 47 multiple myeloma cell lines against the NCATS MIPE library collection: Karpas620_DSMZ cell viability assay (AID 1918959); also: nearly all actives have a fitted effect of over 30% in size
Method in brief: as §3
Tags tell the direction and shape of the fitted curve.

Row | Structure (SMILES) | Potency [1] | Potency [2] | Potency [3] | Potency [4] | Potency [5] | Potency [6] | Potency [7] | Potency [8] | Potency [9] | Potency [10] | Potency [11] | Potency [12] | Potency [13]
1 | O=C(O)CCn1c2c(c3ccccc31)C[C@H](NS(=O)(=O)c1ccc(F)cc1)CC2 | inconclusive: 18.9 µM [activator, partial curve, poor fit] |  |  |  |  |  |  |  |  |  |  |  | 
2 | COC(=O)C1=C(C)NC(C)=C(C(=O)OCCCN2CCC(c3ccccc3)(c3ccccc3)CC2)C1c1cccc([N+](=O)[O-])c1 (stereo not drawn) |  | inconclusive: 18 µM [inhibitor, partial curve, poor fit] | inconclusive: 0.187 µM [cytotoxic, full curve, poor fit] | inactive | inconclusive: 13.2 nM [cytotoxic, partial curve, poor fit] | inconclusive: 9.35 µM [rising, full curve, poor fit] | inactive |  |  |  |  |  | 
3 | CCN1C[C@H](C)n2c(c(O)c3c(=O)n(Cc4ccc(F)c(Cl)c4)nc(C(=O)NC)c32)C1=O | inactive |  | inactive |  |  | inconclusive: 16.6 µM [rising, partial curve, poor fit] | inactive | active: 29.9 µM and inconclusive: 6.7 µM [inhibitor, partial curve] | inconclusive: 3.72 µM [cytotoxic, full curve, poor fit] | inconclusive: 1 nM | inactive |  | 
4 | O=C(Nc1cccc(Br)c1)c1cccc(S(=O)(=O)N2CCCCCC2)c1 |  |  |  | active: 16.6 µM |  | inconclusive: 20.9 µM [cytotoxic, partial curve, poor fit] | inconclusive: 14.8 µM [cytotoxic, partial curve, poor fit] | inactive | inconclusive: 33.2 µM [cytotoxic, single point] |  | inconclusive: 23.5 µM [cytotoxic, single point] | inconclusive: 5.9 µM [cytotoxic, partial curve, poor fit] | 
5 | CC1CCN(c2cc(N3CCN(C)CC3)ccc2NC(=O)c2cc(C#N)c[nH]2)CC1 |  |  | inconclusive: 37.2 µM [cytotoxic, single point] | inconclusive: 33.2 µM [rising, single point] | inactive | inconclusive: 0.0015 µM [rising, full curve, poor fit] | inactive | inconclusive: 7.52 µM [inhibitor, full curve] | inconclusive: 29.6 µM [cytotoxic, single point] | inconclusive: 29.6 nM [cytotoxic, full curve, poor fit] | inconclusive: 14.8 µM [cytotoxic, partial curve, poor fit] | inconclusive: 3.32 µM [cytotoxic, partial curve, poor fit] | inactive
